“And” between values parts separate entries of the source, which are not always exact repeats. Identical values can stand only once.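 How tested: cells in 96-well plates exposed to compound for 48 hours at five concentrations. GI50 is the concentration that inhibits growth by half. At the TGI there is no net growth.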
System: NCI-H322M lung
Assay: growth of human tumour cells (NCI), 48 h

SMILES	TGI	GI50
COc1cc2oc(=O)cc(C)c2cc1OC	> 100 µM	–
O=C1CCN2CCC(=O)c3c2c(cc2ccccc32)N1	> 100 µM	–
CNCCNc1nc2ccccc2c2c(=O)c3cc(F)ccc3sc12	3.39 µM	1.69 µM
CC1(C)C(=O)C=CC2(C)C1CC(O)C1(C)C2CCC2(C)C(c3ccoc3)OC(=O)C3OC321 (configuration not stated)	> 100 µM	–
N=c1ccc2nc3c(cc(N)c4ccccc43)oc-2c1	0.784 µM	0.223 µM
COC(=O)C1Cc2c([nH]c3ccccc23)C(c2ccccc2O)N1Cc1ccccc1 (configuration not stated)	> 46.4 µM	–
COC(=O)[C@H]1[C@H]2C[C@@H]3c4[nH]c5cc(OC)ccc5c4CCN3C[C@H]2C[C@@H](OC(=O)/C=C/c2cc(OC)c(OC)c(OC)c2)[C@@H]1OC	47.4 µM	13.4 µM
CN1C(=O)C2C=CC1C1CCC2N(C)C1=O (configuration not stated)	> 100 µM	–
COc1cc(C2c3cc4c(cc3[C@@H](OCCN(C)C)C3COC(=O)[C@H]23)OCO4)cc(OC)c1O (some centres not stated)	7.92 µM	–
CC(=O)O[C@H]1CCC2[C@@H]3CCC4NC(=O)C(C#N)C[C@]4(C)C3CC[C@@]21C (some centres not stated)	> 10 µM	–
COC(=O)/C=C1\C(=O)C=C2[C@@H]3C[C@H]4C[C@H](CC[C@@]4(C)N21)C3(C)NC(C)=O (some centres not stated)	58 µM	–
COc1ccc(NC(=O)CC(=O)N2N=C(N(c3ccccc3)c3ccccc3)CC2c2ccccc2)cc1 (configuration not stated)	> 100 µM	–
COc1ccc([C@@H](O)c2cc(-c3ncnc4cc(N5CCOCC5)ccc34)c(F)cc2Cl)nn1	43.6 µM	3.04 µM
N#Cc1c(C[n+]2ccccc2)c2ccccc2oc1=O	> 100 µM	–
CCOC(=O)Nc1nc2cc(OCC)ccc2s1	> 100 µM	> 68.3 µM
CNCCNc1nc2ccccc2c2c(=O)c3cc(OC)ccc3sc12	2.91 µM	1.55 µM
O=C(N/N=C/c1ccc(Cl)cc1)c1[nH]c2ccc(Cl)cc2c1-c1ccccc1	> 100 µM	0.54 µM
O=c1oc2cccnc2n1CCCCN1CCN(c2ccccc2)CC1	> 100 µM	–
COc1cc(C2c3cc4c(cc3[C@@H](N(C)C)[C@H]3COC(=O)C23)OCO4)cc(OC)c1O (some centres not stated)	> 100 µM	–
COC(=O)[C@]1(C)CCC[C@@]2(C)[C@@H]3C[C@@H]4[C@H]5C[C@@]3(CC[C@@H]21)C[C@@]45C	43 µM	–
Cc1ccc(/C=C2/NC(=S)SC2=O)cc1	> 100 µM	–
COC(=O)[C@](C)(Cc1ccccc1)NC(=O)[C@@H](C)N1[C@@H](c2ccccc2)COC1(C)C	> 100 µM	–
O=C(NCCCCCCO)c1cccc2cc3ccccc3nc12	37.1 µM	–
C/C(=N/NC(=S)N1CCN(C(=S)N/N=C(/C)c2ccccn2)CC1)c1ccccn1	> 100 µM	–
C[C@]12CC[C@H]3[C@@H](CCC4=C(Br)C(=O)C=C[C@@]43O)[C@@H]1CCC2=O	> 100 µM	–

SMILES	TGI	GI50
CCCCN(CCCC)CCc1c(C)cc(C)c(CCN(CCCC)CCCC)c1O	> 100 µM	3.15 µM
O=[N+]([O-])c1ccc2nc(/C=C(\O)c3ccc(Cl)cc3)c(/C=C(\O)c3ccc(Cl)cc3)nc2c1	> 100 µM	–
CCN(CCCl)c1cccc(NC(=O)c2ccc(C(=O)Nc3cccc(CN(C)C)c3)cc2)c1	4.1 µM	–
Cc1cnc(Nc2ccc(OCCN3CCCC3)cc2)nc1Nc1cccc(S(=O)(=O)NC(C)(C)C)c1	14.2 µM and > 10 µM	0.881 µM and 0.893 µM
COC(=O)[C@@]1(C)CCC[C@]2(C(=O)O)C3Cc4occc4[C@H](C)[C@@H]3CCC21 (some centres not stated)	> 100 µM	–
CCN1CCCn2c(=O)[nH]c3cc(Br)cc1c32	> 100 µM	–
Cc1nc2c(n1-c1ccccc1)C(=O)c1ccccc1C2=O	> 100 µM	–
NC(=O)c1csc(C2CCC(CO)O2)n1 (configuration not stated)	> 100 µM	–
CC(C)(Cc1ccccc1)N1C(=O)N1C(C)(C)Cc1ccccc1	> 100 µM	–
S=P(N1CCCC1)(N1CC1)N1CC1	> 100 µM	–
COC(=O)c1cc(C)ccc1/C=C1\Cc2c(C)cc(C)cc2C1=O	> 100 µM	–
CC[C@H](Nc1nc(N)nc(C2CC2)c1C#N)c1nc2cccc(NCc3ccc(C(=O)NO)cc3)c2c(=O)n1-c1ccccc1	18 µM	2.55 µM
COC(=O)C(=O)C(C(=O)C(N)=O)c1nc2ccc(C(=O)c3ccccc3)cc2[nH]c1=O (configuration not stated)	> 100 µM	–
COc1ccc2c(c1)C(=O)C1CCC(=O)N1C2c1ccc2c(c1)OCO2 (configuration not stated)	42.3 µM	–
Oc1c(CN2CCCC2)cc(CSCc2ccccc2)c2cccnc12	6.43 µM	0.616 µM
Cc1c(C#N)c(=N)oc2ccccc12	> 100 µM	–
Clc1ccc2c(c1)[nH]c1c2nc2sccn21	> 100 µM	–
CN(C)CCCc1c2ccccc2nc2ccc(Cl)cc12	25.9 µM	–
CCOC(=O)C1=C(Nc2ccc(Cl)c(Cl)c2)OC/C1=N\NC(=O)Cc1ccccc1	> 100 µM	–
O=C(CSc1nc(-c2ccccc2)c(-c2ccccc2)[nH]1)NNC(=S)Nc1ccccc1	> 100 µM	–
CC(/C=C/NNC1=NC(c2ccccc2)C(c2ccccc2)=NN1)Sc1ccccc1N (configuration not stated)	23.1 µM	–
O=C(O)Cc1ccccc1CCc1ccccc1Cl	> 100 µM	–
Cc1c(Cl)cccc1NC(=O)/C(Cl)=C(\Cl)C(=O)O	> 100 µM	–
CCN(CC)CCCC(C)Nc1cc(-c2ccccc2)nc2cc(OC)ccc12 (configuration not stated)	21.6 µM	–
CSc1nsc(S/C=C\C(=O)c2ccc(C)cc2)n1	> 59.1 µM	> 43.5 µM
